Screen size: about 48,000 compounds; about 450 (0.94%) were called active. The inconclusive results got no clear call from the source; some entries with a clear call stand among them for comparison. Calls come from the whole dose curve; as a rule, active = well fitted inhibition curve with a large enough effect; inconclusive = small, poorly fitted or top-dose-only effect; inactive = no such curve, though single readings can be large or run the other way. Potencies beside an inconclusive call are fits to weak or partial responses and may not hold up.
Assay: Primary qHTS for Identification of Small Molecule Inhibitors of Huntingtin Promoter Activity; note: nearly all actives have a fitted effect of over 50% in size
Details: HEK293 HTT promoter firefly luciferase reporter (activity 0% = vehicle and -100% = no light), 24 h; activity change, negative = inhibition: at 57.5 µM (top of the series)
Summary of the method: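 HEK293 cells carrying firefly luciferase reporters were seeded at 2,500 per well in Opti-MEM and cultured for 24 h. They were then treated with compounds at up to 57.5 uM final for 24 h at 37 degrees C before Dual-Glo luminescence readout.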
In the case of `COc1cccc(-c2nc3c(C#N)c[nH]n3c2NC2CCC(C)CC2)c1` (centres undefined), the “activity change, negative = inhibition” value is reported as inactive: -2.27%. With `Clc1cccc(-n2ncc3c(NCCCN4CCOCC4)ncnc32)c1` the “activity change, negative = inhibition” value was inactive: -7.85%. With `Clc1cccc(-n2ncc3c(N4CCCCCC4)ncnc32)c1` the Potency was inconclusive: 0.251 µM [inhibitor, full curve, poor fit]. With `Cc1cc(C(=O)N2CCN(c3cc(Cl)ccc3C)CC2)c2c(C)nn(-c3ccccc3)c2n1` the Potency was inconclusive: 31.6 µM [inhibitor, single point]. In the case of `Cc1ccc(NC(=O)Cn2ncn3c(cc4ccccc43)c2=O)cc1C`, the “activity change, negative = inhibition” value is reported as inactive: -10.6%. In the case of `CCOC(=O)c1c(C)[nH]c(C)c1S(=O)(=O)N(C)CC(=O)N1CCN(c2cccc(Cl)c2)CC1`, the Potency is reported as inconclusive: 31.6 µM [inhibitor, partial curve, poor fit]. For `Cc1ccc(C(=O)c2cn(Cc3c(F)cccc3Cl)c3nc(C)ccc3c2=O)cc1`, the “activity change, negative = inhibition” value was inactive: -15.8%. With `CCc1ccc(C2CC(=O)c3c([nH]c(C(=O)OCc4ccc(C)cc4)c3C)C2)cc1` (centres undefined) the Potency was inconclusive: 2.24 µM [inhibitor, single point]. For `CCc1nc2ccc(C(=O)NCCc3ccc(OC)cc3OC)cc2nc1CC`, the Potency was inconclusive: 39.8 µM [inhibitor, single point]. For `O=C(NCCc1ccc(Cl)cc1)c1ccc(CS(=O)(=O)Cc2ccc(Cl)cc2)o1`, the “activity change, negative = inhibition” value was inactive: -18.5%. In the case of `CCOC(=O)CC(NS(=O)(=O)c1cc(-c2cc(C)no2)ccc1C)c1ccc(C)cc1` (centres undefined), the Potency is reported as inconclusive: 31.6 µM [inhibitor, single point]. With `Nc1cc(C(F)(F)F)c(-c2cc(N3CCOCC3)nc(N3CCOCC3)n2)cn1` the Potency was inconclusive: 0.863 µM [inhibitor, full curve]. For `CCOc1ccc(C(=O)Nc2ccc3nc4c(c(Nc5ccccc5OC)c3c2)CCCC4)cc1`, the Potency was inconclusive: 39.8 µM [inhibitor, single point]. In the case of `COc1ccc(OC)c(S(=O)(=O)NCc2ccc3c(c2)CCN3C(=O)c2cccc(C)c2)c1`, the Potency is reported as inconclusive: 17.8 µM [inhibitor, single point]. With `CCC[C@H](NC(=O)C(C#N)=Cc1cccc(Br)n1)c1ccccc1` the Potency was inconclusive: 15.3 µM [inhibitor, partial curve]. In the case of `CCCOCc1cc(CN2CCN(c3ccccc3OC)CC2)c(O)c2ncccc12`, the Potency is reported as inconclusive: 22.4 µM [inhibitor, partial curve, poor fit]. In the case of `CCOC(=O)c1c(NC(=O)C(C)Sc2cn(CCNC(=O)c3ccc(OC)cc3)c3ccccc23)sc2c1CCC2` (centres undefined), the Potency is reported as inconclusive: 28.2 µM [inhibitor, partial curve]. For `Cc1ccc(CSCCNC(=O)CN(c2cccc(C)c2C)S(=O)(=O)c2ccccc2)cc1`, the Potency was inconclusive: 31.6 µM [inhibitor, partial curve, poor fit]. In the case of `O=C(NCc1ccc(Cl)cc1)c1cnc(N2CCOCC2)c2ccccc12`, the Potency is reported as inconclusive: 28.2 µM [inhibitor, single point]. With `COc1ccc(CNC(=O)c2ccc3c(c2)CCN3S(=O)(=O)c2ccccc2)cc1` the Potency was inconclusive: 31.6 µM [inhibitor, partial curve, poor fit]. For `COc1ccc(Cn2c(SCc3ccc(C(=O)NCc4cccs4)cc3)nc3ccncc32)cc1`, the Potency was inconclusive: 35.5 µM [inhibitor, partial curve]. For `O=C(CCCn1c(=O)[nH]c2ccsc2c1=O)N1CCN(c2ccc(Cl)cc2)CC1`, the Potency was inconclusive: 20 µM [inhibitor, single point]. In the case of `COc1cc(OC)c(NC(=O)C(C)n2nc(-c3ccc(C)cc3)c3c(c2=O)CCCC3)cc1Cl` (centres undefined), the Potency is reported as inconclusive: 35.5 µM [inhibitor, partial curve, poor fit]. In the case of `Cc1ccc(NC(=O)C2CCCN(c3ncnc4onc(C)c34)C2)cc1Cl` (centres undefined), the Potency is reported as inconclusive: 1.41 µM [inhibitor, full curve, poor fit]. In the case of `CCc1ccc(-c2nc(CSCC(=O)NCc3ccc(C)cc3)c(C)o2)cc1`, the Potency is reported as inconclusive: 22.4 µM [inhibitor, partial curve, poor fit]. In the case of `CC(=O)c1cc2c(cc1N/C(=N/S(=O)(=O)c1ccc(F)cc1)c1ccccc1)OCO2`, the “activity change, negative = inhibition” value is reported as inactive: -11.1%. In the case of `O=C(Cn1ncc2c3ccccc3n(Cc3cccc(Cl)c3)c2c1=O)N1CCCCCC1`, the Potency is reported as inconclusive: 22.4 µM [inhibitor, partial curve, poor fit]. In the case of `CCc1ccc(NC(=O)CC2C(=O)N(c3ccc(Cl)cc3)C(=O)N2C2CCCC2)cc1` (centres undefined), the Potency is reported as inconclusive: 20 µM [inhibitor, single point]. In the case of `CCc1c(CN2CCN(c3cccc(C)c3)C(C)C2)csc1C` (centres undefined), the “activity change, negative = inhibition” value is reported as inactive: -9.38%. In the case of `O=C(NC1CC(=O)N(c2ccccc2)C1)c1ccc(S(=O)(=O)N2CCCC2)cc1` (centres undefined), the Potency is reported as inconclusive: 8.91 µM [inhibitor, partial curve, poor fit]. For `CC(CCCc1ccccc1)NC(=O)c1nn(-c2ccc(Cl)cc2)nc1CO` (centres undefined), the Potency was inconclusive: 28.2 µM [inhibitor, single point]. In the case of `COc1ccc(-c2nc3ccccc3s2)cc1NC(C)=O`, the “activity change, negative = inhibition” value is reported as inactive: 63%. For `Cc1cccc2sc(N(Cc3cccnc3)C(=O)COc3ccccc3)nc12`, the Potency was inconclusive: 31.6 µM [inhibitor, single point]. With `CCc1ccc(NC(=O)c2ccc(F)c(S(=O)(=O)N3CCN(c4cc(C)ccc4C)CC3)c2)cc1` the Potency was inconclusive: 15.8 µM [inhibitor, partial curve, poor fit]. For `Cc1noc2ncnc(N3CCCC(C(=O)Nc4cccc(C(F)(F)F)c4)C3)c12` (centres undefined), the Potency was inconclusive: 25.1 µM [inhibitor, partial curve, poor fit]. With `Cn1cc(-c2cc3n(n2)CCC(=O)N3CCCC(=O)Nc2ccccc2F)c2ccccc21` the “activity change, negative = inhibition” value was inactive: -22.1%. In the case of `COc1ccc(Nc2nc(-c3ccccc3F)nc3ccccc23)cc1OC`, the Potency is reported as inconclusive: 39.8 µM [inhibitor, partial curve, poor fit]. In the case of `Cc1ccc(C)c(S(=O)(=O)c2nnn3c2nc(N2CCCCC2)c2sccc23)c1`, the Potency is reported as inconclusive: 25.1 µM [inhibitor, single point]. In the case of `COc1ccc(-c2cc(C(=O)Oc3cccc(C)c3C)c3ccccc3n2)cc1`, the “activity change, negative = inhibition” value is reported as inactive: -8.26%.
Potency is the fitted concentration of half-maximal effect; tags give direction and shape of the fitted curve.
